# Measurements: the supplement of paper PMC4967469
# Key:
# Test in all cases: Viability of human cancer cell lines after 72 h of drug (GDSC screen)
# GDC0941 = compound: CS(=O)(=O)N1CCN(Cc2cc3nc(-c4cccc5[nH]ncc45)nc(N4CCOCC4)c3s2)CC1 [GDC0941]; details: top dose 4 µM; screen: GDSC drug entry 1527; top dose inferred
# Method: (§1)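 Human cancer cell lines in 384-well plates, medium with 10% serum, drug for 72 h over a 256-fold dose range (nine 2-fold or five 4-fold steps up to the top dose). Adherent lines were fixed and stained with the nucleic acid dye Syto60, suspension lines read with resazurin; signal relative to control wells, capped at 0 and 100%. One two-parameter sigmoid per drug and line, fitted in a mixed model over all curves with the slope shared within a line.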
# Sunitinib = compound: CCN(CC)CCNC(=O)c1c(C)[nH]c(/C=C2\C(=O)Nc3ccc(F)cc32)c1C [Sunitinib]; details: top dose 8 µM
# Method: as §1
# MG-132 = compound: CC(C)C[C@@H](C=O)NC(=O)[C@H](CC(C)C)NC(=O)[C@H](CC(C)C)NC(=O)OCc1ccccc1 [MG-132]; details: top dose 1 µM
# Method: as §1
# AR-42 = compound: CC(C)[C@H](C(=O)Nc1ccc(C(=O)NO)cc1)c1ccccc1 [AR-42]; details: top dose 5.12 µM; top dose inferred
# Method: as §1
# Pazopanib = compound: Cc1ccc(Nc2nccc(N(C)c3ccc4c(C)n(C)nc4c3)n2)cc1S(N)(=O)=O [Pazopanib]; details: top dose 8 µM
# Method: as §1
# SB 216763 = compound: Cn1cc(C2=C(c3ccc(Cl)cc3Cl)C(=O)NC2=O)c2ccccc21 [SB 216763]; details: top dose 10 µM; top dose inferred
# Method: as §1
# CEP-701 = compound: C[C@]12O[C@H](C[C@]1(O)CO)n1c3ccccc3c3c4c(c5c6ccccc6n2c5c31)CNC4=O [CEP-701]; details: top dose 2 µM; top dose inferred
# Method: as §1
Cell Line,AUC (GDC0941),IC50 (GDC0941) [µM],AUC (Sunitinib),IC50 (Sunitinib) [µM],AUC (MG-132),IC50 (MG-132) [µM],AUC (AR-42),IC50 (AR-42) [µM],AUC (Pazopanib),IC50 (Pazopanib) [µM],AUC (SB 216763),IC50 (SB 216763) [µM],AUC (CEP-701),IC50 (CEP-701) [µM]
"MPP-89 (mesothelioma, adherent)",0.835,3.84,0.911,> 8,0.858,> 1,0.294,0.0694,0.772,4.05,0.953,> 10,0.597,0.251
"MRK-nu-1 (breast, suspension)",0.989,> 4,0.9,> 8,0.797,0.43,0.801,2.26,0.945,> 8,0.981,> 10,0.937,> 2
"MZ2-MEL (melanoma, adherent)",0.58,0.43,0.9,> 8,0.642,0.166,0.75,1.94,0.842,7.13,0.98,> 10,0.626,0.296
"NB1 (neuroblastoma, semi-adherent)",0.787,1.93,0.711,2.12,0.792,0.506,0.853,4.66,0.968,> 8,0.979,> 10,0.778,0.894
"NB5 (neuroblastoma, adherent)",0.674,0.767,0.92,> 8,0.832,0.651,0.592,0.575,0.984,> 8,0.859,8.47,0.695,0.444
"NB-4 (acute myeloid leukaemia, suspension)",0.675,0.694,0.746,2.15,0.773,0.32,0.209,0.0554,0.963,> 8,0.991,> 10,0.359,0.055
"NCI-H82 (small cell lung carcinoma, suspension)",0.975,> 4,0.877,7.33,0.907,> 1,0.762,1.74,0.972,> 8,0.989,> 10,0.447,0.0906
"NCI-H211 (small cell lung carcinoma, adherent)",0.899,> 4,0.878,7.72,0.986,> 1,0.265,0.07,0.972,> 8,0.964,> 10,0.743,0.607
"NCI-H526 (small cell lung carcinoma, suspension)",0.989,> 4,0.96,> 8,0.947,> 1,0.442,0.224,0.937,> 8,0.981,> 10,0.55,0.17
"NCI-H747 (large intestine, adherent)",0.572,0.412,0.824,6.18,0.754,0.405,0.64,0.85,0.948,> 8,0.95,> 10,0.804,1.27
"NCI-H1304 (small cell lung carcinoma, suspension)",0.859,3.74,0.91,> 8,0.821,0.639,0.849,4.31,0.933,> 8,0.988,> 10,0.903,> 2
"NCI-H1417 (small cell lung carcinoma, suspension)",0.42,0.145,0.982,> 8,0.981,> 1,0.337,0.103,0.953,> 8,0.982,> 10,0.446,0.0866
"NCI-H1770 (non-small cell lung carcinoma, suspension)",0.828,2.06,0.91,> 8,0.992,> 1,0.51,0.34,0.974,> 8,0.992,> 10,0.844,1.17
"NCI-H1836 (small cell lung carcinoma, suspension)",0.85,3.5,0.942,> 8,0.899,> 1,0.619,0.706,0.988,> 8,0.988,> 10,0.913,> 2
"NCI-H2135 (non-small cell lung carcinoma, adherent)",0.99,> 4,0.95,> 8,0.919,> 1,0.428,0.205,0.989,> 8,0.989,> 10,0.991,> 2
"NKM-1 (acute myeloid leukaemia, suspension)",0.641,0.622,0.292,0.127,0.872,> 1,0.281,0.075,0.913,> 8,0.903,> 10,0.342,0.045
"NU-DUL-1 (B-cell lymphoma, suspension)",0.965,> 4,0.843,4.1,0.855,0.565,0.256,0.0764,0.946,> 8,0.993,> 10,0.401,0.071
"OCI-AML3 (acute myeloid leukaemia, suspension)",0.71,0.884,0.906,> 8,0.792,0.382,0.331,0.117,0.981,> 8,0.99,> 10,0.658,0.32

Cell Line,AUC (GDC0941),IC50 (GDC0941) [µM],AUC (Sunitinib),IC50 (Sunitinib) [µM],AUC (MG-132),IC50 (MG-132) [µM],AUC (AR-42),IC50 (AR-42) [µM],AUC (Pazopanib),IC50 (Pazopanib) [µM],AUC (SB 216763),IC50 (SB 216763) [µM],AUC (CEP-701),IC50 (CEP-701) [µM]
"OCI-LY-19 (B-cell lymphoma, suspension)",0.73,1.06,0.656,1.3,0.857,0.713,0.303,0.0944,0.868,6.37,0.986,> 10,0.318,0.0406
"OCUB-M (breast, adherent)",0.682,0.745,0.89,7.06,0.572,0.0953,0.458,0.25,0.806,3.42,0.988,> 10,0.88,1.6
"ONS-76 (medulloblastoma, adherent)",0.952,> 4,0.885,> 8,0.609,0.128,0.528,0.384,0.962,> 8,0.984,> 10,0.511,0.134
"P31-FUJ (acute myeloid leukaemia, suspension)",0.956,> 4,0.995,> 8,0.99,> 1,0.575,0.487,0.987,> 8,0.989,> 10,0.712,0.418
"PL-21 (acute myeloid leukaemia, suspension)",0.652,0.711,0.758,3.2,0.891,> 1,0.448,0.225,0.973,> 8,0.983,> 10,0.42,0.0727
"PSN1 (pancreas, adherent)",0.923,> 4,0.707,1.71,0.685,0.187,0.317,0.108,0.908,> 8,0.945,> 10,0.619,0.252
"QIMR-WIL (acute myeloid leukaemia, suspension)",0.861,3.21,0.808,4.01,0.79,0.431,0.231,0.0544,0.896,> 8,0.987,> 10,0.468,0.103
"RPMI-6666 (Hodgkin lymphoma, suspension)",0.755,1.61,0.797,4.69,0.821,0.738,0.292,0.0728,0.807,5.12,0.978,> 10,0.582,0.22
"RPMI-8402 (T-cell lymphoblastic leukaemia, suspension)",0.348,0.102,0.756,–,0.85,0.582,0.198,0.0498,0.982,> 8,0.983,> 10,0.446,0.0912
"SF268 (glioma, adherent)",0.855,3.57,0.786,3.73,0.787,0.471,0.474,0.271,0.885,> 8,0.985,> 10,0.632,0.298
"SH-4 (melanoma, adherent)",0.742,1.86,0.762,4.53,0.475,0.0515,0.757,2.74,0.762,4.5,0.964,> 10,0.494,0.119
"SK-ES-1 (Ewing sarcoma, semi-adherent)",0.725,1.14,0.725,2.29,0.926,> 1,0.638,0.793,0.65,1.34,0.985,> 10,0.492,0.119
"SK-PN-DW (Ewing sarcoma, adherent)",0.701,0.944,0.879,> 8,0.726,0.283,0.391,0.159,0.981,> 8,0.983,> 10,0.542,0.164
"SR (lymphoid neoplasm, suspension)",0.735,1.08,0.691,1.61,0.791,0.399,0.168,0.0361,0.873,6.41,0.988,> 10,0.413,0.0742
"SU-DHL-6 (B-cell lymphoma, suspension)",0.621,0.493,0.775,2.39,0.585,0.101,0.244,0.075,0.882,4.8,0.941,> 10,0.493,0.12
"SU-DHL-16 (B-cell lymphoma, suspension)",0.51,0.264,0.789,2.56,0.704,0.195,0.162,0.0465,0.948,> 8,0.993,> 10,0.384,0.0654
"SUP-T1 (T-cell lymphoblastic leukaemia, suspension)",0.933,> 4,0.98,> 8,0.99,> 1,0.339,0.119,0.942,> 8,0.964,> 10,0.873,1.63
"TE-1 (oesophagus, adherent)",0.694,1.02,0.878,> 8,0.686,0.24,0.954,> 5.12,0.98,> 8,0.971,> 10,0.702,0.543

# By IC50 is meant the dose at which the fit gives 50% viability; where the fit passes the top or lowest dose, that dose stands as a limit. For AUC the same curve is integrated over the 256-fold range of doses and scaled to a fraction: 1 means no effect, lower means more sensitive. For some assays here: An inferred top dose was calculated from the reported fits. For some assays here: An entry number marks a drug with two screens in the source, which often give different values.
